One experiment concerns the target GFP-tag hPCL3S (human) (UniProt Q5T6S3). Briefly: co-IP; 293T cells transiently transfected with the indicated plasmids (Lipofectamine 2000), lysed after 48 h; cleared lysates immunoprecipitated with GFP or FLAG antibody and protein G-Sepharose beads; immunoblot. In general terms: Immunoblotting shows a protein as a band on a membrane.
A further experiment has as its target FLAG-tag hPCL3L (human) (UniProt Q5T6S3). The experiment is described as above.
In experiment [1] the target is hPCL3L (long isoform of human polycomb-like protein 3, PHD finger protein 19) (human (endogenous in A549)) (UniProt Q5T6S3). Put plainly: co-IP; A549 cell lysate immunoprecipitated with anti-hPCL3S or anti-hPCL3L antibody (rabbit IgG as control); Western blotting of the IP product.
In experiment [2] the target is hPCL3S (shorter isoform of human polycomb-like protein 3, PHD finger protein 19) (human (endogenous in A549)) (UniProt Q5T6S3). Described as above.

Chains of the proteins cited; added tags and fusions are not shown.
UniProt P19474: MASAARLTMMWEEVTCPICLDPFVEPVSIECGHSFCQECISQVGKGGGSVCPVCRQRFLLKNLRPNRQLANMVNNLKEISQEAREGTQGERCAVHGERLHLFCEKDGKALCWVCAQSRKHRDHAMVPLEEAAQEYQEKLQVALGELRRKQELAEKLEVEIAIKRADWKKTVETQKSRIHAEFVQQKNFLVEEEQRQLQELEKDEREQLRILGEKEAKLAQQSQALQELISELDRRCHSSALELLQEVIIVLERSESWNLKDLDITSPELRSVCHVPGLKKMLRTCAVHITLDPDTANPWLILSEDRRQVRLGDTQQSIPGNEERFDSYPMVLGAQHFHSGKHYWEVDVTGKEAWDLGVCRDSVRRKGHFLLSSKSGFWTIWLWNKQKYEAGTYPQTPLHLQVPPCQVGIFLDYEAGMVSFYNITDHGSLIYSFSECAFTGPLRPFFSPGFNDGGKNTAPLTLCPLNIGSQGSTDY

No constants are given. Whether binding was seen depends on the method and setting. Binding seen in cells or lysates may run through a third protein. Some entries that bind do so weakly or less than the wild type.

Turning to “FLAG-tag hPCL3L (from UniProt Q5T6S3-1 1-580)”, the binding result with GFP-tag hPCL3S (human) is given as “no binding”.

Take “TRIM21 expressed in 293T cells (from UniProt P19474 1-475)”: the binding entry in the experiment with FLAG-tag hPCL3L (human) and with GFP-tag hPCL3S (human) was “binds” each time.

For the substance “tripartite motif containing-21 (TRIM21) (from UniProt P19474 1-475)”, the binding entry in experiment [1] and in experiment [2] was “binds” each time.

For the origin of these results see article PMC10387491.
